Where two headings read alike, the source gives them in different places. At least one peptide structure holds a part that was inferred or is arguable (an end, a ring closure or a residue). At least one structure is not confirmed: it was looked up by name or label, or the drawing left a doubt.
Legend:
hGLP1R = target: T1, hGLP1R (Homo sapiens, UniProt P43220); assay: hGLP1R CreLuc assay in 0.5% and 100% plasma (HEK-293 CRE-luciferase reporter cells); type: cell-based; details: HEK-293 reporter cells
T1 construct: expressed in transfected cells; host or cells: HEK-293 CRE-luciferase reporter cells
T1 sequence (P43220 24-463): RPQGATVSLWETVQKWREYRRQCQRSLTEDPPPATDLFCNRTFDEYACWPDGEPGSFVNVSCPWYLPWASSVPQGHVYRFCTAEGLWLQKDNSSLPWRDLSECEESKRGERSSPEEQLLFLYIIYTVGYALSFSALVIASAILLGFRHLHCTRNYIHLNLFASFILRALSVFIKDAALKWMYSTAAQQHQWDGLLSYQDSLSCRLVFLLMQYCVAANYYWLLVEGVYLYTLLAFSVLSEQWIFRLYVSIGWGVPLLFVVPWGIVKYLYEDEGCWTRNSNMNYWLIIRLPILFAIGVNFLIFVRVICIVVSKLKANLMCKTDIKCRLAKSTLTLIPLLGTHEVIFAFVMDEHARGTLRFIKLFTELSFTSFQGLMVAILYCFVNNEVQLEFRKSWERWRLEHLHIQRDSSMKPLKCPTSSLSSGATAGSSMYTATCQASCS
Description: (§1) CHO and HEK-293 recombinant cell lines express a luciferase reporter gene under control of the CAMP responsive element (CRE). As a second recombinant protein the GLP-1 and NPY2 receptors were expressed in the reporter gene HEK cells, and the GIP receptor was expressed in the reporter gene CHO cells, respectively. Stimulation of these recombinant cells with an agonist leads to an increase of intracellular CAMP levels. In the presence of CAMP, the transcription factor CRE binding protein (CREB) binds to the CRE and to the CREB binding protein (CBP), which leads to transcription of the luciferase reporter gene. Peptides upon serial-dilution in 100% DMSO were transferred into 384-well assay plates with 5 μl pre-dispensed assay buffer (1×HBSS, 20 mM HEPES, pH7.4 supplemented with 0.5% human plasma) using acoustic dispensing on a Labcyte ECHO. Cryo-preserved transgenic reporter gene cells were thawed in assay buffer. 20 μl (10.000 cells/well) were added to the plate with the peptides and incubated for 4 hours at 37° C. in a humidified incubator. Following incubation, assay plates are equilibrated to room temperature, followed by addition of 25 μl of Bright-Glo™ Luciferase reagent, incubation at room temperature for 10 minutes and analysis of luminescence (Envision Reader). […] EC50 values were calculated by non-linear regression using sigmoid concentration-response with variable slope.
(§2) The same assays were run in the presence of 100% plasma with no additional buffer constituents.

hGIPR = target: T2, hGIPR (Homo sapiens, UniProt P48546); assay: hGIPR CreLuc assay in 0.5% and 100% plasma (CHO CRE-luciferase reporter cells); type: cell-based
T2 construct: expressed in transfected cells; host or cells: CHO CRE-luciferase reporter cells
T2 sequence (P48546 22-466): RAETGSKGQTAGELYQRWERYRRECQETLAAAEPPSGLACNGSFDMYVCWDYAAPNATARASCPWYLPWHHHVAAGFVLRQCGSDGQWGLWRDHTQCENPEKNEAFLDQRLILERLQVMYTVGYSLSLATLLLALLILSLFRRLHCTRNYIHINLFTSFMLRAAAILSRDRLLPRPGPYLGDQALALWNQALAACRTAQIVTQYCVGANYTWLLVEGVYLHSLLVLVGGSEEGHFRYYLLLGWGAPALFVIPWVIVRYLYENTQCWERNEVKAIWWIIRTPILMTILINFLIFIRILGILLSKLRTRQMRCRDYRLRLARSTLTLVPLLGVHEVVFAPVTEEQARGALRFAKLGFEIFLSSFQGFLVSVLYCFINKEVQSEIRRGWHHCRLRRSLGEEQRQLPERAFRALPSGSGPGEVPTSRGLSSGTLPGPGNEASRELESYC
Description: as §1, §2

[1] = 0.5% human plasma, read-out: hGLP1R 0.5% hP
[2] = 0.5% human plasma, read-out: hGIPR 0.5% hP
[3] = 100% human plasma, read-out: hGIPR 100% hP

| SMILES | EC50 (hGLP1R; [1]) | EC50 (hGIPR; [2]) | EC50 (hGLP1R; 100% human plasma, read-out: hGLP1R 100% hP) | EC50 (hGIPR; [3]) |
| --- | --- | --- | --- | --- |
| CC[C@H](C)[C@H](NC(=O)[C@H](CC(C)C)NC(=O)[C@H](Cc1c[nH]cn1)NC(=O)[C@H](CCCNC(=N)N)NC(=O)[C@@H](NC(=O)[C@H](Cc1ccccc1)NC(=O)[C@H](CCC(=O)O)NC(=O)C(C)(C)NC(=O)[C@H](CCC(N)=O)NC(=O)[C@H](C)NC(=O)[C@H](CCC(N)=O)NC(=O)[C@H](CCCCN)NC(=O)[C@H](CCC(=O)O)NC(=O)[C@H](CC(C)C)NC(=O)C(C)(C)NC(=O)[C@@H](NC(=O)[C@H](CO)NC(=O)[C@H](Cc1ccc(O)cc1)NC(=O)[C@H](CC(=O)O)NC(=O)[C@H](CO)NC(=O)[C@@H](NC(=O)[C@H](Cc1ccccc1)NC(=O)[C@@H](NC(=O)CNC(=O)[C@H](CCC(=O)O)NC(=O)C(C)(C)NC(=O)[C@@H](N)Cc1ccc(O)cc1)[C@@H](C)O)[C@@H](C)O)[C@@H](C)CC)C(C)C)C(=O)N[C@@H](CC(N)=O)C(=O)N[C@@H](CCCCNC(=O)CCCCCNC(=O)CC[C@H](NC(=O)[C@H](CCC(=O)O)NC(=O)CC[C@H](NC(=O)CC[C@H](NC(=O)CC[C@H](NC(=O)CCCCCCCCCCCCCCCCC(=O)O)C(=O)O)C(=O)O)C(=O)O)C(=O)O)C(=O)N[C@@H](CC(C)C)C(=O)N[C@H](C(=O)N[C@@H](CCCNC(=N)N)C(=O)N[C@@H](CCC(N)=O)C(=O)N[C@@H](CCCNC(=N)N)C(=O)N[C@@H](Cc1ccc(O)cc1)C(N)=O)[C@@H](C)O [Compound 45, Y-Aib-E-G-T-F-T-S-D-Y-S-I-Aib-L-E-K-Q-A-Q-Aib-E-F-V-R-H-L-I-N-K(1,3)-L-T-R-Q-R-Y-NH2.C18DA-gGlu-gGlu-gGlu-gGlu-gGlu-AHX(1,2)] | 0.5 nM | 0.3 nM | – | – |
| CC[C@H](C)[C@H](NC(=O)[C@H](CC(C)C)NC(=O)[C@H](Cc1c[nH]cn1)NC(=O)[C@H](CCCNC(=N)N)NC(=O)[C@@H](NC(=O)[C@H](Cc1ccccc1)NC(=O)[C@H](C)NC(=O)C(C)(C)NC(=O)[C@H](CCC(N)=O)NC(=O)[C@H](C)NC(=O)[C@H](CCC(N)=O)NC(=O)[C@H](CCCCN)NC(=O)[C@H](CCC(=O)O)NC(=O)[C@H](CC(C)C)NC(=O)C(C)(C)NC(=O)[C@@H](NC(=O)[C@H](CO)NC(=O)[C@H](Cc1ccc(O)cc1)NC(=O)[C@H](CC(=O)O)NC(=O)[C@H](CO)NC(=O)[C@@H](NC(=O)[C@H](Cc1ccccc1)NC(=O)[C@@H](NC(=O)CNC(=O)[C@H](CCC(=O)O)NC(=O)C(C)(C)NC(=O)[C@@H](N)Cc1ccc(O)cc1)[C@@H](C)O)[C@@H](C)O)[C@@H](C)CC)C(C)C)C(=O)N[C@@H](CC(N)=O)C(=O)N[C@@H](CCCCNC(=O)CC[C@H](NC(=O)CC[C@H](NC(=O)[C@@H](N)CCCCNC(=O)CC[C@H](NC(=O)CC[C@H](NC(=O)CC[C@H](NC(=O)CC[C@H](NC(=O)CCCCCCCCCCCCCCCCCCC(=O)O)C(=O)O)C(=O)O)C(=O)O)C(=O)O)C(=O)O)C(=O)O)C(=O)NC(C)(C)C(=O)N[C@H](C(=O)N[C@@H](CCCNC(=N)N)C(=O)N[C@@H](CCC(N)=O)C(=O)N[C@@H](CCCNC(=N)N)C(=O)N[C@@H](Cc1ccc(O)cc1)C(N)=O)[C@@H](C)O [Compound 52, Y-Aib-E-G-T-F-T-S-D-Y-S-I-Aib-L-E-K-Q-A-Q-Aib-A-F-V-R-H-L-I-N-K(1,3)-Aib-T-R-Q-R-Y-NH2.C20DA-gGlu-gGlu-gGlu-gGlu-eLys-gGlu-gGlu(1,2)] | – | 0.3 nM | 5.8 nM | – |
| CC[C@H](C)[C@H](NC(=O)[C@H](CC(C)C)NC(=O)[C@H](Cc1c[nH]cn1)NC(=O)[C@H](CCCNC(=N)N)NC(=O)[C@@H](NC(=O)[C@H](Cc1ccccc1)NC(=O)[C@H](C)NC(=O)C(C)(C)NC(=O)[C@H](CCC(N)=O)NC(=O)[C@H](C)NC(=O)[C@H](CCC(N)=O)NC(=O)[C@H](CCCCN)NC(=O)[C@H](CCC(=O)O)NC(=O)[C@H](CC(C)C)NC(=O)C(C)(C)NC(=O)[C@@H](NC(=O)[C@H](CO)NC(=O)[C@H](Cc1ccc(O)cc1)NC(=O)[C@H](CC(=O)O)NC(=O)[C@H](CO)NC(=O)[C@@H](NC(=O)[C@H](Cc1ccccc1)NC(=O)[C@@H](NC(=O)CNC(=O)[C@H](CCC(=O)O)NC(=O)C(C)(C)NC(=O)[C@@H](N)Cc1ccc(O)cc1)[C@@H](C)O)[C@@H](C)O)[C@@H](C)CC)C(C)C)C(=O)N[C@@H](CC(N)=O)C(=O)N[C@@H](CCCCNC(=O)CCCCCNC(=O)CC[C@H](NC(=O)CC[C@H](NC(=O)CC[C@H](NC(=O)CC[C@H](NC(=O)CC[C@H](NC(=O)CCCCCCCCCCCCCCCCC(=O)O)C(=O)O)C(=O)O)C(=O)O)C(=O)O)C(=O)O)C(=O)N[C@@H](CC(C)C)C(=O)N[C@H](C(=O)N[C@@H](CCCNC(=N)N)C(=O)N[C@@H](CCC(N)=O)C(=O)N[C@@H](CCCNC(=N)N)C(=O)N[C@@H](Cc1ccc(O)cc1)C(N)=O)[C@@H](C)O [Compound 69, Y-Aib-E-G-T-F-T-S-D-Y-S-I-Aib-L-E-K-Q-A-Q-Aib-A-F-V-R-H-L-I-N-K(1,3)-L-T-R-Q-R-Y-NH2.C18DA-gGlu-gGlu-gGlu-gGlu-gGlu-AHX(1,2)] | 0.7 nM | 0.2 nM | – | 5.5 nM |
| CC[C@H](C)[C@H](NC(=O)[C@H](Cc1ccccc1)NC(=O)[C@H](C)NC(=O)C(C)(C)NC(=O)[C@H](CCC(N)=O)NC(=O)[C@H](C)NC(=O)[C@H](CCC(N)=O)NC(=O)[C@H](CCCCN)NC(=O)[C@H](CC(=O)O)NC(=O)[C@H](CC(C)C)NC(=O)C(C)(C)NC(=O)[C@@H](NC(=O)[C@H](CO)NC(=O)[C@H](Cc1ccc(O)cc1)NC(=O)[C@H](CC(=O)O)NC(=O)[C@H](CO)NC(=O)[C@@H](NC(=O)[C@H](Cc1ccccc1)NC(=O)[C@@H](NC(=O)CNC(=O)[C@H](CCC(=O)O)NC(=O)C(C)(C)NC(=O)[C@@H](N)Cc1ccc(O)cc1)[C@@H](C)O)[C@@H](C)O)[C@@H](C)CC)C(=O)N[C@@H](CCCNC(=N)N)C(=O)N[C@@H](Cc1c[nH]cn1)C(=O)N[C@@H](CC(C)C)C(=O)N[C@H](C(=O)N[C@@H](CC(N)=O)C(=O)N[C@@H](CCCCNC(=O)[C@@H](N)CCCCNC(=O)CC[C@H](NC(=O)CC[C@H](NC(=O)CC[C@H](NC(=O)CC[C@H](NC(=O)CC[C@H](NC(=O)CC[C@H](NC(=O)CCCCCCCCCCCCCCCCC(=O)O)C(=O)O)C(=O)O)C(=O)O)C(=O)O)C(=O)O)C(=O)O)C(=O)NC(C)(C)C(=O)N[C@H](C(=O)N[C@@H](CCCNC(=N)N)C(=O)N[C@@H](CCC(N)=O)C(=O)N[C@@H](CCCNC(=N)N)C(=O)N[C@@H](Cc1ccc(O)cc1)C(N)=O)[C@@H](C)O)[C@@H](C)CC [Compound 102, Y-Aib-E-G-T-F-T-S-D-Y-S-I-Aib-L-D-K-Q-A-Q-Aib-A-F-I-R-H-L-I-N-K(1,3)-Aib-T-R-Q-R-Y-NH2.C18DA-gGlu-gGlu-gGlu-gGlu-gGlu-gGlu-eLys(1,2)] | 0.1 nM | 0.1 nM | – | 2.8 nM |
| CC[C@H](C)[C@H](NC(=O)[C@H](CC(C)C)NC(=O)[C@H](Cc1c[nH]cn1)NC(=O)[C@H](CCCNC(=N)N)NC(=O)[C@@H](NC(=O)[C@H](Cc1ccccc1)NC(=O)[C@H](C)NC(=O)C(C)(C)NC(=O)[C@H](CCC(N)=O)NC(=O)[C@H](C)NC(=O)[C@H](CCC(N)=O)NC(=O)[C@H](CCCCN)NC(=O)[C@H](CCC(=O)O)NC(=O)[C@H](CC(C)C)NC(=O)C(C)(C)NC(=O)[C@@H](NC(=O)[C@H](CO)NC(=O)[C@H](Cc1ccc(O)cc1)NC(=O)[C@H](CC(=O)O)NC(=O)[C@H](CO)NC(=O)[C@@H](NC(=O)[C@H](Cc1ccccc1)NC(=O)[C@@H](NC(=O)CNC(=O)[C@H](CCC(=O)O)NC(=O)C(C)(C)NC(=O)[C@@H](N)Cc1ccc(O)cc1)[C@@H](C)O)[C@@H](C)O)[C@@H](C)CC)C(C)C)C(=O)N[C@@H](CC(N)=O)C(=O)N[C@@H](CCCCNC(=O)COCCOCCNC(=O)CC[C@H](NC(=O)CC[C@H](NC(=O)CC[C@H](NC(=O)CC[C@H](NC(=O)CCCCCCCCCCCCCCCCC(=O)O)C(=O)O)C(=O)O)C(=O)O)C(=O)O)C(=O)NC(C)(C)C(=O)N[C@H](C(=O)N[C@@H](CCCNC(=N)N)C(=O)N[C@@H](CCC(N)=O)C(=O)N[C@@H](CCCNC(=N)N)C(=O)N[C@@H](Cc1ccc(O)cc1)C(N)=O)[C@@H](C)O [Compound 110, Y-Aib-E-G-T-F-T-S-D-Y-S-I-Aib-L-E-K-Q-A-Q-Aib-A-F-V-R-H-L-I-N-K(1,3)-Aib-T-R-Q-R-Y-NH2.C18DA-gGlu-gGlu-gGlu-gGlu-OEG(1,2)] | 0.7 nM | 0.2 nM | – | – |
